# Source: US6392045B1, “9-azobicyclo[3.3.1] non-2-ene derivatives as cholinergic ligands at nicotinic ACH receptors” (NeuroSearch A/S, priority 1997, dated 2002)
smiles,measurement,setting,value
"CN1C2C=C(c3cc4ccccc4s3)CC1CCC2 (racemic) [Compound 7a, (±)-3-(2-Benzothienyl)-9-methyl-9-azabicyclo[3.3.1]non-2-ene]",melting point,free base prepared by method A,91.3 to 93.5 °C
same,melting point,free base prepared by method C,83.2 to 85.4 °C

# Like-named read-outs stand apart in the source and are kept apart here. Entries with a single value are a further part of the results.
